Data as given in the BET-seq Pho4 binding data (Le et al. 2018).
The list shows a part of the results. Values were computed here from the reads of four pooled replicates and scatter widely.

The sequences below were run against T1, Pho4 (S. cerevisiae) (UniProt P07270) (assay: relative binding free energy (BET-seq); higher = weaker binding). Settings: reference: library average.
T1 sequence: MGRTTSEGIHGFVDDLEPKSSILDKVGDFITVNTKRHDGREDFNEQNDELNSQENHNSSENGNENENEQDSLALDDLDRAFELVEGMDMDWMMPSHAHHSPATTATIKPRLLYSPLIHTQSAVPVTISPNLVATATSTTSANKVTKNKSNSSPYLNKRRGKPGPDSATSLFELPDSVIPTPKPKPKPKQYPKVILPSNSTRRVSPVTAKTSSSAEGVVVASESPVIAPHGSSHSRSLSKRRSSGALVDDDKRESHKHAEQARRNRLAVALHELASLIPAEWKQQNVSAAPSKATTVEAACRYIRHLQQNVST

Sequence | relative binding free energy
TTAGGCACGTGGTCCT | -0.21 kcal/mol
CGGTTCACGTGGGATA | 0.16 kcal/mol
GGCGGCACGTGGTAGG | -0.15 kcal/mol
GGTTTCACGTGGATTT | 0.32 kcal/mol
CAGTGCACGTGGTGCG | -0.12 kcal/mol
GGATACACGTGGTAGA | 0.2 kcal/mol
GTGTGCACGTGGCGAT | -0.09 kcal/mol
TAGAGCACGTGGGCGG | -0.21 kcal/mol
GTTCACACGTGGTTGT | 0.07 kcal/mol
ATATGCACGTGAGCTG | 0.05 kcal/mol
TGTACCACGTGGGCGG | -0.24 kcal/mol
TGGTGCACGTGGACTT | -0.15 kcal/mol
TGTTGCACGTGAGGCC | 0.17 kcal/mol
TACGGCACGTGTGGAG | 0 kcal/mol
GAGTACACGTGTGAGG | 0.03 kcal/mol
AGTAACACGTGATATT | 0.16 kcal/mol
GGTAACACGTGAGTTT | 0.41 kcal/mol
TGTATCACGTGTGGCG | 0.11 kcal/mol
ATTCGCACGTGTAGGC | 0.09 kcal/mol
ATTATCACGTGAGTTG | 0.32 kcal/mol
TCTGGCACGTGGACTG | -0.04 kcal/mol
GACTGCACGTGGTGTA | -0.01 kcal/mol
GGTGTCACGTGCTTTA | 0.11 kcal/mol
GGATTCACGTGTAATA | 0.33 kcal/mol
AGGTACACGTGTGGAA | 0.22 kcal/mol
GCTTTCACGTGTGTGT | 0.26 kcal/mol

Sequence | relative binding free energy
TATACCACGTGGTGGT | -0.1 kcal/mol
GGGTTCACGTGAGTTG | 0.51 kcal/mol
GGGTGCACGTGTTCAA | -0.02 kcal/mol
TGGGGCACGTGAGTAA | 0.22 kcal/mol
GGTTCCACGTGTGTGT | 0.14 kcal/mol
GGGTACACGTGTTCAA | 0.18 kcal/mol
TGGTACACGTGTTAGG | 0.16 kcal/mol
CTGTACACGTGGATGG | 0.06 kcal/mol
TGTGGCACGTGAACTG | 0.14 kcal/mol
GTGGTCACGTGAGTAT | 0.45 kcal/mol
TTCAGCACGTGGGAGG | -0.14 kcal/mol
GGGATCACGTGGGCGG | 0.12 kcal/mol
TTTATCACGTGCATAT | -0.02 kcal/mol
GTTTGCACGTGTATGC | 0.1 kcal/mol
ATATGCACGTGTTGTT | -0.13 kcal/mol
CATTGCACGTGATGGG | 0 kcal/mol
CGTTGCACGTGGCGCG | -0.03 kcal/mol
ACATTCACGTGGAGGG | 0.27 kcal/mol
AGAAACACGTGGCGTG | -0.02 kcal/mol
CTGTTCACGTGGTGAT | 0.21 kcal/mol
TTTATCACGTGCTTTT | 0.17 kcal/mol
GTTCTCACGTGTGTTC | 0.42 kcal/mol
GGTCGCACGTGGGGCG | -0.17 kcal/mol
TATGTCACGTGTCATA | 0.04 kcal/mol
TATGGCACGTGGTGGG | -0.11 kcal/mol
AGTATCACGTGGTTGT | 0.02 kcal/mol

Sequence | relative binding free energy
CTTGCCACGTGGGGGG | -0.41 kcal/mol
ATAGGCACGTGTTATG | -0.12 kcal/mol
CTAGTCACGTGCGGGT | -0.06 kcal/mol
GTTCTCACGTGTCGTG | 0.11 kcal/mol
AGGAGCACGTGTGTCG | -0.14 kcal/mol
TATATCACGTGGGAAG | 0.22 kcal/mol
TGGTTCACGTGATCTT | 0.45 kcal/mol
TGACTCACGTGAGTTG | 0.35 kcal/mol
AGGTTCACGTGTAAGC | 0.42 kcal/mol
CTTGGCACGTGAGGGA | 0.06 kcal/mol
GCAAGCACGTGGTTTG | 0.06 kcal/mol
TTAGGCACGTGCGTAA | -0.18 kcal/mol
TGAGGCACGTGTCGGC | -0.11 kcal/mol
GTATACACGTGGTAGT | -0.09 kcal/mol
TGGGTCACGTGGAGAG | 0.23 kcal/mol
AGGGTCACGTGACAGA | 0.2 kcal/mol
GGGTTCACGTGTCGGA | 0.2 kcal/mol
GTCTGCACGTGGGGGC | -0.09 kcal/mol
GGATGCACGTGAAGGC | 0.19 kcal/mol
ATGTCCACGTGTTATG | -0.04 kcal/mol
CTAAGCACGTGGTGGG | 0.05 kcal/mol
GACGACACGTGGGCGG | 0.07 kcal/mol
GTAGCCACGTGGTGTA | -0.14 kcal/mol
TTGGTCACGTGTTAGC | 0.02 kcal/mol
TGGGTCACGTGAGGTA | 0.28 kcal/mol
GTTTCCACGTGGGTTA | -0.17 kcal/mol

Sequence | relative binding free energy
GGGAGCACGTGGTGAC | -0.15 kcal/mol
TCTTTCACGTGTGAGA | 0.33 kcal/mol
TGTGACACGTGCGGTT | -0.08 kcal/mol
GGTATCACGTGGAAGT | 0.35 kcal/mol
GTCTTCACGTGGGTAT | 0.22 kcal/mol
AGTATCACGTGTTGCG | 0.02 kcal/mol
AAGTGCACGTGTTCGG | 0.06 kcal/mol
TTAATCACGTGAGAAT | 0.35 kcal/mol
TTTTGCACGTGATGTA | 0.11 kcal/mol
TGAATCACGTGATGGG | 0.42 kcal/mol
ATAAGCACGTGAGTGG | 0.21 kcal/mol
TAGGGCACGTGAGTAT | 0.21 kcal/mol
AAGCGCACGTGGGTGT | -0.29 kcal/mol
TATGTCACGTGCAGGG | 0.11 kcal/mol
CTATTCACGTGCGGGT | 0.22 kcal/mol
GGAGTCACGTGTGGGT | 0.32 kcal/mol
AAGGCCACGTGTGGGG | -0.06 kcal/mol
GACGTCACGTGTTGGA | 0.28 kcal/mol
GGTTTCACGTGATTCT | 0.29 kcal/mol
GACGTCACGTGGAGGT | 0.2 kcal/mol
GGTAGCACGTGGCGTT | -0.1 kcal/mol
GTTAGCACGTGTATTC | 0.07 kcal/mol
GGTAACACGTGGGGGT | -0.06 kcal/mol
GTATTCACGTGGTCGA | 0.28 kcal/mol
TGGGTCACGTGCCAGT | -0.08 kcal/mol
TAGTTCACGTGATATT | 0.38 kcal/mol

Sequence | relative binding free energy
TTTGACACGTGAATTA | 0.24 kcal/mol
GATTACACGTGATTTT | 0.23 kcal/mol
TTGTTCACGTGGAATG | 0.22 kcal/mol
TGCTTCACGTGATATT | 0.18 kcal/mol
TATGACACGTGCGTGG | -0.02 kcal/mol
CATGTCACGTGGTTAG | 0.03 kcal/mol
GACGACACGTGGGTTA | 0.1 kcal/mol
ATGGGCACGTGGGTCT | -0.16 kcal/mol
CTAGTCACGTGGTGGA | 0.05 kcal/mol
CGCTACACGTGGGGTG | -0.12 kcal/mol
GGTGTCACGTGGGGAT | 0.11 kcal/mol
TTGTACACGTGATTCA | 0.11 kcal/mol
GTTTGCACGTGCTTGA | -0.13 kcal/mol
GGTTACACGTGTGCTT | 0.14 kcal/mol
AGGCACACGTGATAGT | 0.14 kcal/mol
GTAATCACGTGATTGT | 0.15 kcal/mol
ACTTTCACGTGTGTGG | 0.3 kcal/mol
GTGTTCACGTGTCGCT | 0.28 kcal/mol
AATATCACGTGGGTGG | -0.01 kcal/mol
TGACGCACGTGGGCGT | -0.29 kcal/mol
TTGGGCACGTGGAATT | -0.01 kcal/mol
GATCTCACGTGGGATT | 0.27 kcal/mol
TTGAGCACGTGCGGTA | -0.15 kcal/mol
TTTGTCACGTGGACAT | 0.03 kcal/mol
CTGGGCACGTGAAGAG | 0.08 kcal/mol
ATGTTCACGTGGGCAT | -0.04 kcal/mol

Sequence | relative binding free energy
TGGTACACGTGAGACG | 0.33 kcal/mol
TAATCCACGTGAAGGG | 0.43 kcal/mol
TAGAACACGTGGTAAG | 0.02 kcal/mol
GTGAACACGTGAGAGG | 0.25 kcal/mol
TTACTCACGTGTTTAT | 0.25 kcal/mol
AGGGACACGTGCTGGG | -0.12 kcal/mol
GAGGGCACGTGCTTGT | -0.02 kcal/mol
GTCGTCACGTGTTTCT | 0.31 kcal/mol
TAATCCACGTGGGTAG | -0.08 kcal/mol
GTTTGCACGTGAAAAG | 0.14 kcal/mol
ATCGTCACGTGTAGTA | 0.06 kcal/mol
ACGGGCACGTGAGGGA | 0.04 kcal/mol
TGTTACACGTGGTGGT | 0.02 kcal/mol
AGAGGCACGTGGGGAC | -0.2 kcal/mol
TTAATCACGTGTTTAT | 0.12 kcal/mol
GAATTCACGTGTTGGG | 0.35 kcal/mol
GGTAACACGTGTACGT | -0.02 kcal/mol
GCGAGCACGTGAGGGG | 0.18 kcal/mol
GGAGGCACGTGGTTTC | -0.02 kcal/mol
GTATACACGTGTTAGT | 0.02 kcal/mol
GGAGGCACGTGGAGAG | 0.08 kcal/mol
AACGGCACGTGGGTGT | -0.2 kcal/mol
GAGGTCACGTGATAAG | 0.34 kcal/mol
TGGTGCACGTGACGAT | 0.26 kcal/mol
AGATCCACGTGGGCGT | 0.15 kcal/mol
TATAGCACGTGAGTGT | 0.02 kcal/mol

Sequence | relative binding free energy
AGATTCACGTGTTTTG | 0.33 kcal/mol
GTACGCACGTGCGGTG | -0.04 kcal/mol
CAGTTCACGTGTGTAT | 0.22 kcal/mol
CGGGTCACGTGATCGT | 0.22 kcal/mol
TACGTCACGTGTTGAT | 0.03 kcal/mol
AGTTTCACGTGAACTT | 0.32 kcal/mol
GGTGTCACGTGTATGG | 0.15 kcal/mol
GGGGACACGTGAAGCT | 0.35 kcal/mol
TTTGGCACGTGACAGT | 0.01 kcal/mol
TTAATCACGTGATGTA | 0.11 kcal/mol
CGAGTCACGTGTTAAT | 0.23 kcal/mol
ATTCCCACGTGGGGTG | -0.18 kcal/mol
ATGATCACGTGCGTTG | 0.03 kcal/mol
AAGTTCACGTGCGAGT | 0.25 kcal/mol
CTAATCACGTGGAGGG | 0.23 kcal/mol
AGTTTCACGTGGAGTC | 0.32 kcal/mol
ATTTACACGTGGCGGT | 0.06 kcal/mol
CTGGGCACGTGGAGGT | -0.07 kcal/mol
TTGAGCACGTGGATTC | 0 kcal/mol
TAGGGCACGTGTTTCT | -0.05 kcal/mol
TATCACACGTGCGGGT | 0.08 kcal/mol
TTTATCACGTGCGTGA | -0.02 kcal/mol
GGATGCACGTGGGATT | -0.05 kcal/mol
AAGGTCACGTGTCTGA | 0.08 kcal/mol
GTGTTCACGTGTAGAC | 0.3 kcal/mol
GGAGACACGTGATCGG | 0.15 kcal/mol

Sequence | relative binding free energy
TTTTGCACGTGCAAGT | 0 kcal/mol
TTCTTCACGTGGACGT | 0.38 kcal/mol
AGTGACACGTGCGAGG | -0.07 kcal/mol
GTGTTCACGTGCAAGG | 0.16 kcal/mol
GCGGCCACGTGTGGTT | 0.06 kcal/mol
TGGGACACGTGCATGC | 0.08 kcal/mol
AGCATCACGTGTGTTG | 0 kcal/mol
TTTTTCACGTGTTATC | 0.23 kcal/mol
TTGTCCACGTGTAGCG | 0.26 kcal/mol
CTTGACACGTGGGATG | -0.05 kcal/mol
TAATGCACGTGTAAGA | 0.21 kcal/mol
TGCTACACGTGAGGGT | 0.35 kcal/mol
GCGTACACGTGATGGG | 0.22 kcal/mol
CTGGTCACGTGGGGCG | -0.04 kcal/mol
GAGTTCACGTGTGCAG | 0.21 kcal/mol
AGTCGCACGTGGGGAC | -0.14 kcal/mol
TGTTACACGTGAATAA | 0.34 kcal/mol
GTTAACACGTGGTTCA | 0.11 kcal/mol
GGGCTCACGTGTTATA | 0.32 kcal/mol
TACGTCACGTGTGCGG | 0.05 kcal/mol
TTTTGCACGTGGGAGC | -0.04 kcal/mol
AATTGCACGTGTTGTG | -0.03 kcal/mol
GTGGGCACGTGGAGAG | 0 kcal/mol
GACTTCACGTGTGTTG | 0.33 kcal/mol
AGTTTCACGTGATAGT | 0.27 kcal/mol
TTTGGCACGTGATTGG | 0.02 kcal/mol

Sequence | relative binding free energy
TCTGGCACGTGCGATT | -0.01 kcal/mol
AATATCACGTGAGTGA | 0.31 kcal/mol
AGTCTCACGTGGATAG | 0.28 kcal/mol
GGGGACACGTGTATAG | 0.16 kcal/mol
TTACCCACGTGGGTGG | -0.15 kcal/mol
GCGGGCACGTGAGAGT | 0.25 kcal/mol
TTTGGCACGTGCGACG | -0.18 kcal/mol
TTTTTCACGTGAAATA | 0.52 kcal/mol
CTGTTCACGTGGGCGA | 0.18 kcal/mol
ATTGTCACGTGCGCTT | 0.04 kcal/mol
TTGGGCACGTGTTGTC | -0.05 kcal/mol
TCGTGCACGTGGTGAC | 0.06 kcal/mol
ACAGACACGTGAGGGT | 0.13 kcal/mol
TTAGTCACGTGAGGAG | 0.31 kcal/mol
TGTGCCACGTGCTATT | -0.02 kcal/mol
CTTTTCACGTGTGGTT | 0.16 kcal/mol
TCGTTCACGTGTGTCT | 0.29 kcal/mol
GGGTGCACGTGACTGT | 0.08 kcal/mol
GTTAGCACGTGAAGTT | 0.35 kcal/mol
GCACTCACGTGGTTGT | 0.18 kcal/mol
AGTGTCACGTGGTCAA | -0.16 kcal/mol
TTTTGCACGTGTGGCC | 0.18 kcal/mol
